We go through eight compounds from PubChem BioAssay (NCATS).

This is one part of the list. Further columns of the screen follow, without active or inactive calls. Compounds called inactive in the main read-out are mostly missing here. Words in brackets tell the shape of the fitted curve; partial curves, single points and poor fits give uncertain potencies.
Tags describe the fitted curve by direction and shape.

This assay is described as follows: Cell-based coincidence reporter assay to measure PMP22 gene transcription in S16 Pmp22-F2sN cells - Confirmatory screen (AID 1508646). The note with it: S16 Schwann cells Pmp22-F2sN, dual luciferase, 24 h; measured here: NLuc reporter channel. In outline:
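Coincidence reporter read as sequential FLuc then NLuc luminescence (Nano-Glo Dual-Luciferase, 10 min each). Engineered S16 Pmp22-F2sN Schwann cells, 500-1,000 per well in DMEM/10% FBS, were exposed to compounds for 24 h, 37C.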
On the technique in general: Reporter assays use an easily measured gene product as a stand-in for the process of interest.
The term AC50 denotes the concentration giving half of the maximal activity seen. As to `Cc1ccc(NS(=O)(=O)c2cc(Br)cc3c2N(C(=O)C2CC2)CC3)cc1C`, the half-maximal activity concentration (AC50) is 21.7 µM [falling, partial curve].
As to `Cc1ccc(CS(=O)(=O)c2ncc(Cl)c(C(=O)Nc3nc4ccc(F)cc4s3)n2)cc1`, the AC50 is 13.7 µM [falling, partial curve].
As to `CCOC(=O)c1ccc(N2C(=O)c3n[nH]c(C)c3C2c2ccc(O)c(OC)c2)cc1` (stereo not drawn), the AC50 is 21.7 µM [falling, partial curve].
Consider `COc1cc(C(=O)CC2(O)C(=O)N(Cc3ccccc3Cl)c3ccccc32)cc(OC)c1OC` (stereo not drawn), for which the AC50 is 34.3 µM [falling, partial curve].
Turning to `Cc1ccc(C)n1-c1nnc(N2CCCC(C(=O)NCc3cccc(F)c3)C2)s1` (stereo not drawn), the AC50 was 21.7 µM [falling, single point].
Next, `CCC1CCCCN1CCCNC(=O)c1cc2c(Cl)nc3ccccc3c2s1` (stereo not drawn): 24.3 µM [falling, partial curve, poor fit]; `COc1ccc(N(CC(=O)Nc2cc(Cl)ccc2C)S(=O)(=O)c2c(C)noc2C)cc1`: 4.32 µM [falling, full curve, poor fit].
Next, `O=S(=O)(c1ccc(Cl)cc1)c1nnn2c1nc(NC1CCCC1)c1sccc12`: 30.6 µM [falling, single point].
